Measurements as given in the RNAGym collection of RNA variant scans (doi:10.7554/elife.90254).
The source gives no read counts; variants with many changes may rest on few reads.

B1: LINE1-mini (parent)
chain: GGCAGAGCUCAACACAGCGUGGCAAAGUGGCUGUGGCUAGACUGCC

Variants of: B1
Assay: self-cleavage, relative activity (ratio to wild type); higher = more cleavage; in vitro, sequencing; the parent is a self-cleaving ribozyme

| Variant | self-cleavage |
| --- | --- |
| G2U U28C G29A | 0.04 |
| G2U U28G A39C | 0.06 |
| G2U U28G G33U | 0 |
| G2U U28G U43C | 0.17 |
| G2U U32A G33U A41C | 0.02 |
| G2U U32G C37G G40U | 0.01 |
| G2U U32G U38G G44C | 0.02 |
| G2U U34C A41G C45U | 0.01 |
| G2U U34C G35A G40U | 0.08 |
| G2U U34C G36U A39U | 0.03 |
| G2U U38C A41U | 0.01 |
| G2U U43A G44A | 0.05 |
| G2U U43C C45U | 0.04 |
| G2U U43G C46G | 0.02 |
| C3A A4C A14U C18G A24G C31G G36C G44U C45U | 0.02 |
| C3A A4C A16U C42G | 0.03 |
| C3A A4C C10A G29U G36C U38C | 0.01 |
| C3A A4C C10U A25U U38A | 0.04 |
| C3A A4C C15G | 0.24 |
| C3A A4C C31A U32C | 0.3 |
| C3A A4C G5U A12C A25U U28C G33U | 0.06 |
| C3A A4C G17C A24C | 0.53 |
| C3A A4C G17C C18U U20A G40C | 0.04 |
| C3A A4C G22A C42A C45G | 0.07 |

| Variant | self-cleavage |
| --- | --- |
| C3A A4C G30A | 0.42 |
| C3A A4C G40C | 0.01 |
| C3A A4C U20C G22A G40C | 0.14 |
| C3A A4G A14U | 0.17 |
| C3A A4G A25C A26C | 0.12 |
| C3A A4G A25U G27U | 0.04 |
| C3A A4G C8U A25C G30U U34C | 0.11 |
| C3A A4G C13G A16C | 0.04 |
| C3A A4G C18A G33U | 0.06 |
| C3A A4G C18G G21C G30U C45U | 0.08 |
| C3A A4G C23U G29A G33U | 0.26 |
| C3A A4G C37G | 0.1 |
| C3A A4G G5A C10G A26G G29U G40A | 0.01 |
| C3A A4G G22A C42A | 0.19 |
| C3A A4G G33U | 0.11 |
| C3A A4U A11G C23A G33U G36U G44C | 0 |
| C3A A4U A11G C46U | 0.04 |
| C3A A4U A11U A16G G29U G35U | 0.01 |
| C3A A4U A24C | 0.25 |
| C3A A4U C8U | 0.15 |
| C3A A4U C15G G21U C23G | 0.17 |
| C3A A4U C46U | 0.35 |
| C3A A4U G19A G36C C45A | 0.14 |
| C3A A4U G27A | 0.08 |

| Variant | self-cleavage |
| --- | --- |
| C3A A4U G30A | 0.54 |
| C3A A4U G30C | 0.2 |
| C3A A4U G40A U43A | 0.08 |
| C3A A4U G44A | 0.64 |
| C3A A4U U9C A11U A16C G27U | 0.03 |
| C3A A4U U32A G40U C42G | 0.08 |
| C3A A4U U38A | 0.17 |
| C3A A6C A11C U38G | 0.04 |
| C3A A6C C10A G27U C42A | 0.02 |
| C3A A6C C10A U34A | 0.04 |
| C3A A6C C31U A39U U43C | 0.07 |
| C3A A6C G7C A26C C31G | 0.2 |
| C3A A6C G21C | 1.07 |
| C3A A6C G36U C37A | 0.22 |
| C3A A6C U20A | 0.35 |
| C3A A6G A12G G29C | 0.03 |
| C3A A6G A14G A16G U20C A25C G33U | 0.01 |
| C3A A6G A24U G33U | 0.14 |
| C3A A6G A39C | 0.06 |
| C3A A6G C8A G17U U20C C31U G40C U43A | 0.18 |
| C3A A6G C8U U9G | 0.96 |
| C3A A6G C10A A11U A41U | 0.04 |
| C3A A6G C10A C31U U38A C45A | 0.04 |
| C3A A6G C15A | 0.21 |

| Variant | self-cleavage |
| --- | --- |
| C3A A6G C15A G22U A24U G36U C45G | 0.16 |
| C3A A6G C31A | 0.12 |
| C3A A6G C45U | 0.13 |
| C3A A6G G17U C45A | 0.09 |
| C3A A6G G29C A41C | 0.03 |
| C3A A6G G33C G35C C46U | 0.04 |
| C3A A6G G35A | 0.29 |
| C3A A6G G36C C46A | 0.11 |
| C3A A6G U9A G17A G29C C31A | 0.29 |
| C3A A6G U28C U34G | 0.12 |
| C3A A6U A14G A24U U28C | 0.33 |
| C3A A6U A26G | 0.46 |
| C3A A6U A39C | 0.26 |
| C3A A6U C8A C13U G17C U32C | 0.23 |
| C3A A6U C8G C13A U38A C45A | 0.02 |
| C3A A6U C10A | 0.05 |
| C3A A6U C10G C23A A26U U34C G36C | 0.01 |
| C3A A6U C15A C42U C45G C46A | 0.09 |
| C3A A6U C15A G19C C23U C37G | 0.11 |
| C3A A6U C15U | 0.45 |
| C3A A6U C18A A41C C42G | 0.04 |
| C3A A6U G19A C23U C31A U38C C42U | 0.24 |
| C3A A6U G29U | 1.32 |
| C3A A6U U9C G33C G36A | 0.03 |

| Variant | self-cleavage |
| --- | --- |
| C3A A11C A26U G35C C37A | 0 |
| C3A A11C C13A A25C C31A | 0.01 |
| C3A A11C C18A G19U G44A | 0.02 |
| C3A A11C G29U C37U | 0.03 |
| C3A A11C G40C A41U | 0.06 |
| C3A A11C U20A | 0.05 |
| C3A A11C U28A G44C | 0.01 |
| C3A A11G C15G G36C A41U | 0.01 |
| C3A A11G C18U | 0.02 |
| C3A A11G C37A | 0.04 |
| C3A A11G G17C G30U C37U | 0.04 |
| C3A A11G G36A C37G G40C | 0.04 |
| C3A A11G U20A A39U | 0.01 |
| C3A A11G U34C | 0.09 |
| C3A A11U A14C C23U C31U U32C U34G | 0.01 |
| C3A A11U A16G C23A | 0.03 |
| C3A A11U A26C G35U | 0.04 |
| C3A A11U C18U G22C | 0.06 |
| C3A A11U C46G | 0.04 |
| C3A A11U G17A | 0.05 |
| C3A A11U G19C G21A U32A G35A C45G | 0.03 |
| C3A A11U G19U U28G | 0.01 |
| C3A A11U G21U G27U G29C U34A | 0.02 |
| C3A A11U G22A | 0.01 |

| Variant | self-cleavage |
| --- | --- |
| C3A A11U G36U A39G | 0.02 |
| C3A A12C C15A A16C | 0.04 |
| C3A A12C C46G | 0.18 |
| C3A A12C G21A | 0.28 |
| C3A A12C G30A U38C | 0.05 |
| C3A A12C G30C | 0.03 |
| C3A A12G A14G C31U C46G | 0.1 |
| C3A A12G A16C | 0.01 |
| C3A A12G A16U A39U C46A | 0.02 |
| C3A A12G C13G | 0.2 |
| C3A A12G G29U G30A U38G | 0.03 |
| C3A A12G G33A | 0.43 |
| C3A A12U A26C | 0.59 |
| C3A A12U A26C U32G | 0.09 |
| C3A A12U C13A G17C G19U A39C C42U | 0.18 |
| C3A A12U C15A G29U | 0.31 |
| C3A A12U C31G U43A C46A | 0.04 |
| C3A A12U C46A | 0.07 |
| C3A A12U G36A | 0.14 |
| C3A A12U U20G | 0.07 |
| C3A A12U U32A U38G | 0.05 |
| C3A A14C C42G | 0.31 |
| C3A A14C G22A C37G G40C | 0.04 |
| C3A A14C G27C | 0.13 |

| Variant | self-cleavage |
| --- | --- |
| C3A A14C G40U A41U | 0.03 |
| C3A A14C U20C G35A | 0.05 |
| C3A A14G A16U G40A | 0.15 |
| C3A A14G A26U C45G | 0.44 |
| C3A A14G C31G U32G | 0.04 |
| C3A A14G G21U A26U U28C U32C C37G C42A | 0.04 |
| C3A A14G G22C C42A C45A | 0.48 |
| C3A A14G G22U A26C | 0.46 |
| C3A A14U A16C C23A A26U | 0.12 |
| C3A A14U C15G | 0.05 |
| C3A A14U C23A | 2.29 |
| C3A A14U C23A U34C C45U | 0.37 |
| C3A A14U C46A | 0.1 |
| C3A A14U G33C | 0.06 |
| C3A A14U G36C | 0.28 |
| C3A A14U G40C | 0.04 |
| C3A A14U U38C | 0.13 |
| C3A A16C A26C C31G | 0.04 |
| C3A A16C C23G C37U A41U | 0.03 |
| C3A A16C G27U G44C | 0.16 |
| C3A A16G G17U G27A U32G U38A G40C | 0.07 |
| C3A A16G G22C A25U | 0.03 |
| C3A A16U C18A | 0.15 |
